Test results from PubChem BioAssay AID1159614 (National Center for Advancing Translational Sciences (NCATS), 2016).
About 65 (0.1%) of roughly 45,000 compounds were called active. The call rests on the fitted dose curve; in most records, active means well fitted activation curve with a large enough effect; inconclusive means small, poorly fitted or top-dose-only effect; inactive means no such curve, though single readings can be large or run the other way. Some of the results follow.

Each molecule was assayed against Galactocerebrosidase (Homo sapiens) (UniProt P54803) (assay: A Novel Cell-Based Assay to Identify Small Molecules for B -Galactocerebrosidase). Settings: 145M-Twi-hGALC-G270D cells, HMU-beta-Gal fluorescence, 48 h; series mostly up to 57.5 µM; activation: at the top concentration.
Summary of the method: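 qHTS, 1536-well; 145M-Twi-hGALC-G270D cells (WT line also made) in DMEM/F12 + 10% FBS; compound incubation on live cells; HMU-β-gal 0.1 mM final, pH 5.2, NaTC; carbonate stop; fluorescence increase = enhanced residual activity.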
Further: 0% is about no effect; nearly all actives have a fitted effect of over 65% in size.

Sequence of UniProt P54803 (P54803 whole entry, looked up): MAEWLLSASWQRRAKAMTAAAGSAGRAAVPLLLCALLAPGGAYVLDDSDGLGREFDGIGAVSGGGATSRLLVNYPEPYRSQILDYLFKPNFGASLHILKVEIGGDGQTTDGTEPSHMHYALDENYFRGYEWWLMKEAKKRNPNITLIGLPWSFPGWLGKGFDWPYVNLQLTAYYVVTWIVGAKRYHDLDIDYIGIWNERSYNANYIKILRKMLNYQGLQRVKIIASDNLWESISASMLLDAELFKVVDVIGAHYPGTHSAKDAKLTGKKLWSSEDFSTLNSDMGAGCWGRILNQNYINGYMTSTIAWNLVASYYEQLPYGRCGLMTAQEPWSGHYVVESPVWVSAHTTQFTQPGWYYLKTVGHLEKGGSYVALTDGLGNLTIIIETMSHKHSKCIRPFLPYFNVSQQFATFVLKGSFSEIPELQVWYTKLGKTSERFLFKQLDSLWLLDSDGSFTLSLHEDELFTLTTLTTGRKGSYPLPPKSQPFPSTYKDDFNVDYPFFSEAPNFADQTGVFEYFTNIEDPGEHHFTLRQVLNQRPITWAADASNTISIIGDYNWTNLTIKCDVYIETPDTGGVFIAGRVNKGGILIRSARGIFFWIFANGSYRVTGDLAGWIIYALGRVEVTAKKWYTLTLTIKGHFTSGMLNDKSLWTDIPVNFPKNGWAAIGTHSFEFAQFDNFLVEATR

SMILES | activation
Cc1ccc(C)c(CSc2nc3c([nH]c4ccccc43)c(=O)n2C)c1 | inactive: -4.93%
O=C(NCCCc1nc2ccccc2n1Cc1ccc(F)cc1)C1CCCCC1 | inactive: -4.05%
CC(C)c1ccc2oc(-c3ccc(Cl)c(NC(=O)c4cccs4)c3)nc2c1 | inactive: -11.7%
CCOc1ccc(NC(=O)CCCc2nc(-c3cccc(OC)c3)no2)cc1 | inactive: -12.1%
COc1cccc2c1cc1c(=O)n(CC(=O)N3CCN(c4ccccc4F)CC3)nc(C)n12 | inactive: -2.33%
O=C1CS(=O)(=O)C2(C(=O)Nc3ccccc32)N1c1cccc(Cl)c1 (configuration not stated) | inactive: -25%
Cc1ccc(CNC(=O)c2sc3nc(C)cc(C)c3c2-n2cccc2)cc1 | inactive: -10.3%
O=C(NCCc1nc2ccccc2n1Cc1ccccc1)c1ccco1 | inactive: -17.5%
Cc1ccc(NS(=O)(=O)c2cnc(N)nc2)c(C)c1 | inactive: -2.08%
CCN(CC)CCNC(=O)C1CCN(c2cc(C)nc3c(-c4ccc(Cl)cc4)c(C)nn23)CC1 | inactive: 10.4%
Cc1ccc(CN2CCCn3nc(C(=O)NCc4ccc(OC(C)C)cc4)cc3C2=O)cc1 | inactive: -25.2%
CCN(CC)CCNC(=O)c1cc(-c2ccc(Br)s2)nc2ccccc12 | inactive: -11.8%
Cc1nc(-n2nc(C)c(Cc3ccc4c(c3)OCO4)c2C)sc1C(=O)Nc1cccc(Cl)c1 | inactive: -3.34%
CCc1nn(CC(=O)Nc2cc(C)cc(C)c2)c(=O)c2cc3sccc3n12 | inactive: -22.6%
CSc1ccc(CCNC(=O)CCc2c(C)nc3c(c(C)nn3-c3ccc(C)c(C)c3)c2C)cc1 | inactive: -15.7%
COc1ccc2nc(NC(=O)c3nc(S(=O)(=O)Cc4ccccc4)ncc3Cl)sc2c1 | inactive: -19.9%
CCOC(=O)c1cccc(NC(=O)c2ccc3nc(C(C)C)oc3c2)c1 | inactive: -11.5%
Cc1ccc(NC(=O)CSc2n[nH]c(-c3ccc(F)cc3)n2)cc1F | inactive: -19.7%
CCOc1ccccc1NC(=O)N1CCN(C)c2ncccc21 | inactive: -30.4%
COc1cc(-c2noc(CN3CCN(c4cccc(Cl)c4)CC3)n2)cc(OC)c1OC | inactive: -14%
CSc1cccc(NC(=O)CC(c2cccs2)N2Cc3ccccc3C2=O)c1 (configuration not stated) | inactive: -35.5%
O=Cc1ccccc1C=O | inactive: -16.1%
COc1ccc(Cn2c(=O)n(-c3ccccc3C)c(=O)c3c4c(sc32)CN(C(C)=O)CC4)cc1 | inactive: -16.6%
CCCN(CCC)CCNC(=O)c1cc2c(-c3ccc(Cl)cc3)nn(C)c2s1 | inactive: 0.874%
O=C(Nc1cccc(Cl)c1Cl)c1cc2nc(-c3ccc(Cl)cc3)cc(C(F)(F)F)n2n1 | inactive: -6.96%

SMILES | activation
CCC(C(=O)Nc1nnc2n1CCS2)c1ccccc1 (configuration not stated) | inactive: -16.6%
CCOC(=O)c1c(C)sc(-c2c(-c3cc(C)ccc3C)[nH]c3c2c(=O)n(C)c(=O)n3C)c1O | inactive: -19.2%
Cc1ccc(NC(=O)CCn2nc(C)c(S(=O)(=O)N3CCCCC3)c2C)cc1Cl | inactive: -15%
CCOc1ccc(N(CC(=O)Nc2cc(C)ccc2C)S(=O)(=O)c2c(C)[nH]c(=O)[nH]c2=O)cc1 | inactive: -13.9%
COc1ccc(NC(=O)N2CCc3c(sc4c3CCCC4)C2c2ccccc2OC)cc1 (configuration not stated) | inactive: -7.52%
CC(C)CC(=O)Nc1ccc2nc(SCC(=O)N3CCCC3)sc2c1 | inactive: -16.6%
CCCNC(=O)CSc1nc2ccccc2nc1Cc1ccc(Cl)cc1 | inactive: -11.5%
Cc1ccc(OCC(=O)NCC(c2ccc(Cl)cc2)N2CCCCC2)cc1 (configuration not stated) | inactive: -7.96%
Cc1ccc(C)c(CN2C(=O)c3ccccc3S(=O)(=O)c3ccc(C(=O)N4CCc5ccccc54)cc32)c1 | inactive: -3.9%
CCN(c1ccc(C)cc1)S(=O)(=O)c1nnc(NC(=O)C2CCCCC2)s1 | inactive: -19.6%
Cc1cccc(NC(=O)c2cc(S(=O)(=O)NCc3ccc4c(c3)OCO4)ccc2F)c1C | inactive: -15.4%
CN(C)CCCN1c2ccccc2Sc2ccc(C(F)(F)F)cc21 | inactive: -14%
CCOC(=O)Cn1c(=O)n(CC2CCCO2)c2nc(-c3ccccc3F)nc(C(N)=O)c21 (configuration not stated) | inactive: -11.2%
Cc1ccc(Cn2cc(C(=O)c3ccc(F)cc3)c(=O)c3cc4c(cc32)OCO4)cc1 | inactive: -8.74%
COc1ccc(CNS(=O)(=O)c2cc3c(cc2C)N(C)CCO3)cc1 | inactive: -3.65%
CCOC(=O)c1ccc(OCC2c3cc(OC)c(OC)cc3CCN2C(=O)c2ccc(S(=O)(=O)N3CCCC3)cc2)cc1 (configuration not stated) | inactive: -25.4%
COc1ccc(-n2c(C)c(C(C)=O)c3cc(OC(=O)c4ccc(C)cc4)ccc32)cc1 | inactive: -9.03%
CCn1c(CNC(=O)c2ccc(OC)cc2)nnc1SCC(=O)Nc1ccccc1 | inactive: -22.2%
COC(=O)c1ccc(NC(=O)CCc2c(C)nc3c(-c4ccccc4)c(C)nn3c2C)cc1 | inactive: -32.2%
Cc1ccc(CCNC(=O)c2cn(C)c3ccc(S(=O)(=O)N(C)C4CCCCC4)cc3c2=O)cc1 | inactive: -18.9%
CCC1=Nc2cc(C(=O)NCC(C)c3ccccc3)ccc2Sc2ccc(C)cc21 (configuration not stated) | inactive: -11.3%
COc1ccc(-c2nc3scc(CCNS(=O)(=O)c4ccccc4F)n3n2)cc1 | inactive: 1.47%
COc1ccc(-c2noc(-c3ccc(N4CCCC4)c([N+](=O)[O-])c3)n2)cc1 | inactive: -31.6%
CCN1CCN(c2ncnc3c2cnn3-c2ccc(C)c(Cl)c2)CC1 | inactive: -20%
COc1ccc(C)cc1S(=O)(=O)NCC(c1cccs1)S(=O)(=O)c1ccc(C)cc1 (configuration not stated) | inactive: -6.25%

SMILES | activation
CC(Oc1ccc(F)cc1)C(=O)Nc1nc(-c2ccc(F)cc2)ns1 (configuration not stated) | inactive: -42.5%
COc1ccccc1-n1c(=O)c2c3c(sc2n(C)c1=O)CN(C(C)=O)CC3 | inactive: -22.7%
O=C(NCc1ccc2c(c1)CCN2C(=O)c1ccccc1)Nc1cc(F)ccc1F | inactive: -26.4%
CCOC(=O)Cc1ccc(NC(=O)Nc2ccccc2OCc2cc(=O)n3ccccc3n2)cc1 | inactive: -14.4%
COc1ccc(Cn2c(CNS(=O)(=O)c3ccc(C)c(C)c3)nc3cccnc32)cc1 | inactive: -0.483%
CCn1nnc2cc(C(=O)Nc3cccc(Cl)c3C)ccc21 | inactive: -17.1%
CCCCN(CCCC)CCNC(=O)c1cn(CC)c2ccc(S(=O)(=O)N3CCc4ccccc4C3)cc2c1=O | inactive: -21.5%
CCCN(CCC)CCNC(=O)CN1C(=O)COc2ccc(S(=O)(=O)N3CCC(C)CC3)cc21 | inactive: -2.3%
CCOc1ccc(/C=C/c2nc(C#N)c(N3CCCCC3)o2)cc1 | inactive: -14.8%
Cc1ccc(-c2nc3ccccc3s2)cc1NC(=O)COc1ccccc1 | inactive: -7.92%
Cc1ccc(OCC(=O)NCC2(N3CCOCC3)CCCCC2)cc1C | inactive: 10.5%
CCC1CN(C(=O)C2CCN(S(=O)(=O)c3c(C)noc3/C=C/c3ccccc3F)CC2)c2cc(Cl)ccc2O1 (configuration not stated) | inactive: -5.26%
COc1ccc(N(Cc2cccs2)C(=O)c2ccc(Br)o2)cc1 | inactive: -21.5%
O=C(CN(CCc1ccccc1)S(=O)(=O)c1ccc(Br)cc1)NCc1ccc(Cl)cc1 | inactive: 1.02%
CCOC(=O)Cn1nc(-c2ccccc2)c2cnc3ccc(OCC)cc3c21 | inactive: 4.62%
CCOC(=O)CSc1nc2c([nH]c3ccccc32)c(=O)n1-c1ccc(OC)cc1 | inactive: -9.7%
Cc1oc(-c2cccc(Cl)c2)nc1CN1CCC(C(=O)NCCCN2CCN(c3ccccc3F)CC2)CC1 | inactive: -23.1%
CCCOC(=O)c1ccccc1 | inactive: -13.2%
CCc1ccc(NC(=O)CSC2=Nc3ccccc3C3=NC(CC(=O)NC4CCCCC4)C(=O)N23)cc1 (configuration not stated) | inactive: -11.1%
COc1ccc(NC(=O)C2CCCN(S(=O)(=O)c3ccc4c(c3)CCCC(=O)N4)C2)cc1OC (configuration not stated) | inactive: -41.1%
Cc1ccc2c(=O)cc(C(=O)Nc3ccc(S(=O)(=O)Nc4nc(C)cc(C)n4)cc3)oc2c1 | inactive: -14.8%
O=C(C1CCN(c2ncnc3c2nc2n3CCCCC2)CC1)N1CCN(c2ccc(F)cc2)CC1 | inactive: -10%
CCOc1cc(C2C(C(=O)Nc3ccc(OC)cc3)=C(C)Nc3nc(SC)nn32)ccc1O (configuration not stated) | inactive: -9.63%
COc1ccc(S(=O)(=O)NCC(c2ccc(N(C)C)cc2)N2CCc3ccccc32)cc1 (configuration not stated) | inactive: -6.04%
COc1ccccc1N1CCN(C(=O)CCc2nnc3n(C)c(=O)c4sccc4n23)CC1 | inactive: 7.02%

SMILES | activation
Cc1cccc(C(=O)Nc2ccc(C(=O)OCc3cc(=O)n4nc(C5CC5)sc4n3)cc2)c1 | inactive: -26.7%
CCCC(=O)N1CC(=O)Nc2ccc(Cl)cc2C1c1ccccc1 (configuration not stated) | inactive: -18.6%
CCC(Sc1ncnc2sc3c(c12)CCCC3)C(=O)OC(C)C (configuration not stated) | inactive: -6.62%
CCc1ccc(NC(=O)Cn2c(=O)n(Cc3nc(-c4ccccc4)no3)c(=O)c3cc4c(cc32)OCO4)cc1 | inactive: 7.59%
COc1ccc(S(=O)(=O)N2CCC(c3ccncc3)CC2)cc1OC | inactive: -6.67%
Cc1ccc(N2C(=O)NC(NS(=O)(=O)c3ccc(Cl)cc3)(C(F)(F)F)C2=O)cc1C (configuration not stated) | inactive: -14.3%
O=C(c1ccco1)n1nc(-c2ccc(Cl)cc2)nc1NCc1ccccc1 | inactive: -19.4%
Cc1ccc(NC(=O)C2CCCN2S(=O)(=O)c2ccc3nc(-c4ccccc4)[nH]c3c2)cc1F (configuration not stated) | inactive: 6.23%
CCOc1ccc(OCC)c(NC(=O)C2CCN(S(=O)(=O)c3cn(C)cn3)CC2)c1 | inactive: -11.8%
CSc1ccc(CCNC(=O)Cn2ncc3c(=O)oc4ccccc4c32)cc1 | inactive: -14.6%
COCCNC(=O)CSc1cn(CC(=O)N2CCCCCC2)c2ccccc12 | inactive: 8.29%
Cc1ccn2c(Nc3ccc(F)cc3)c(-c3ccccn3)nc2c1 | inactive: -6.72%
COc1ccc(OC)c(Nc2ncnc3c2cnn3-c2cccc(Cl)c2)c1 | inactive: -15.4%
Cc1ccc(C)c(CSc2ccc3nnc(CCNS(=O)(=O)c4ccccc4)n3n2)c1 | inactive: -12.3%
CCCCC(=O)OC1=C(C(C)=O)N(Cc2ccccc2)S(=O)(=O)c2ccccc21 | inactive: -4.39%
O=C(Cn1nc(-c2ccccc2)nc(Cc2ccccc2)c1=O)Nc1ccccc1 | inactive: -4.93%
CCNC(=O)c1c(NC(=O)Cc2coc3cc(C)ccc23)sc2c1CCCC2 | inactive: 10.9%
CCn1cc(C(=O)N2CCN(c3ccccc3)CC2)c(=O)c2cc(S(=O)(=O)N3CCCC3)ccc21 | inactive: -18.4%
COc1cccc(C(=O)Nc2nc3nc(C)c(C)c(=O)n3[nH]2)c1 | inactive: -3.72%
CCOc1ccc(S(=O)(=O)Nc2cccc(C)c2)c2cccnc12 | inactive: 13.2%
O=C(Nc1c(O)c2ccccc2oc1=O)c1cccc(F)c1 | inactive: -5.67%
CCc1ccccc1NC(=O)Cc1cn(C)c2ccccc12 | inactive: -18.1%
